± gives the uncertainty stated by the source. For part of its entries the source gives two or more results. They are shown here; other results are not. There may be further records. Values that stand side by side are repeats (runs, samples, wells, individuals or studies). Brackets tell where a record comes from. Letters count within one entry. Marks such as (2×) count equal records among those shown.
Which results are given for `CCCCCCCCO`?
viscosity (303.15 K, 101 kPa): 6.493 ± 0.17 mPa·s, 6.513 ± 0.078 mPa·s, 6.344 ± 0.036 mPa·s, 6.446 ± 0.13 mPa·s, 5.969 ± 0.035 mPa·s, 6.602 ± 0.14 mPa·s, 6.125 ± 0.49 mPa·s, 6.207 ± 1.2 mPa·s, 6.247 ± 0.11 mPa·s, 6.201 ± 0.25 mPa·s, 5.969 ± 0.073 mPa·s [several studies]; viscosity (303.15 K, 101.33 kPa): 6.12 ± 0.25 mPa·s [study A] and 6.102 ± 0.036 mPa·s [study B] and 6.102 ± 0.043 mPa·s [study C] and 6.256 ± 0.13 mPa·s [study D] and 6.1 ± 0.034 mPa·s [study E] and 6.256 ± 0.052 mPa·s [study F] and 6.102 ± 0.065 mPa·s [study G] and 6.207 ± 0.066 mPa·s [study H]; viscosity (308.15 K, 100 kPa): 5.37 ± 0.97 mPa·s [study A] and 5.36 ± 0.069 mPa·s [study B] and 5.422 ± 0.15 mPa·s [study C] and 5.421 ± 0.17 mPa·s [study D] and 5.388 ± 0.15 mPa·s [study E] and 5.38 ± 0.22 mPa·s [study F]; viscosity (308.15 K, 101 kPa): 5.256 ± 0.05 mPa·s (2×), 5.257 ± 0.05 mPa·s, 5.363 ± 0.032 mPa·s, 5.009 ± 0.03 mPa·s, 5.274 ± 0.44 mPa·s, 5.422 ± 0.18 mPa·s, 5.403 ± 1.1 mPa·s, 5.522 ± 0.032 mPa·s, 5.01 ± 0.07 mPa·s, 5.213 ± 0.048 mPa·s, 5.422 ± 0.33 mPa·s [several studies]; viscosity (313.15 K, 101.33 kPa): 4.413 ± 0.028 mPa·s [study A] and 4.413 ± 0.033 mPa·s [study B] and 4.584 ± 0.11 mPa·s [study C] and 4.584 ± 0.04 mPa·s [study D] and 4.413 ± 0.05 mPa·s [study E]; viscosity (318.15 K, 100 kPa): 3.97 ± 0.71 mPa·s [study A] and 3.904 ± 0.05 mPa·s [study B] and 4.051 ± 0.11 mPa·s [study C] and 4.011 ± 0.11 mPa·s [study D] and 3.91 ± 0.16 mPa·s [study E]

Which viscosity (298.15 K, 101.33 kPa) does the source give for `C=Cc1ccccc1` here?
Its viscosity is 0.709 ± 0.011 mPa·s, 0.709 ± 0.013 mPa·s [study A] and 0.708 ± 0.005 mPa·s, 0.708 ± 0.009 mPa·s, 0.7082 ± 0.0093 mPa·s, 0.708 ± 0.018 mPa·s, 0.7082 ± 0.018 mPa·s [study B] and 0.709 ± 0.037 mPa·s, 0.708 ± 0.037 mPa·s [study C].

What about the viscosity (303.15 K, 101.33 kPa) of the same molecule?
Its viscosity is 0.662 ± 0.011 mPa·s, 0.662 ± 0.013 mPa·s [study A] and 0.663 ± 0.005 mPa·s, 0.663 ± 0.009 mPa·s, 0.6627 ± 0.0088 mPa·s, 0.663 ± 0.017 mPa·s, 0.6627 ± 0.017 mPa·s [study B] and 0.662 ± 0.035 mPa·s [study C].

What about the viscosity (308.15 K, 101.33 kPa) of the same molecule?
Its viscosity is 0.623 ± 0.011 mPa·s, 0.623 ± 0.013 mPa·s [study A] and 0.623 ± 0.004 mPa·s, 0.623 ± 0.008 mPa·s, 0.6231 ± 0.0084 mPa·s, 0.623 ± 0.017 mPa·s, 0.6231 ± 0.017 mPa·s [study B] and 0.623 ± 0.033 mPa·s [study C].

With `CC(=O)c1ccc(Cl)cc1` as the molecule, how does the viscosity (308.15 K, 101 kPa) read?
Its viscosity is 2.355 ± 0.071 mPa·s [study A] and 2.293 ± 0.02 mPa·s [study B] and 2.293 ± 0.029 mPa·s [study C] and 2.292 ± 0.028 mPa·s [study D].

Which viscosity (293.15 K, 100 kPa) does the source give for `CC#N` here?
Its viscosity is 0.386 ± 0.039 mPa·s [study A] and 0.36 ± 0.07 mPa·s [study B] and 0.3641 ± 0.037 mPa·s [study C] and 0.3642 ± 0.01 mPa·s [study D].

And the viscosity (293.15 K, 101 kPa)?
The viscosity was 0.35 ± 0.071 mPa·s [study A] and 0.355 ± 0.008 mPa·s [study B] and 0.364 ± 0.011 mPa·s [study C] and 0.366 ± 0.008 mPa·s [study D] and 0.355 ± 0.009 mPa·s [study E] and 0.36 ± 0.18 mPa·s [study F].

And the viscosity (298.15 K, 101 kPa)?
Its viscosity is 0.259 ± 0.007 mPa·s, 0.324 ± 0.0049 mPa·s, 0.338 ± 0.004 mPa·s, 0.375 ± 0.01 mPa·s, 0.315 ± 0.004 mPa·s, 0.346 ± 0.011 mPa·s, 0.333 ± 0.067 mPa·s, 0.35 ± 0.18 mPa·s, 0.3462 ± 0.0074 mPa·s, 0.345 ± 0.005 mPa·s [several studies].

And the viscosity (303.15 K, 101 kPa)?
The viscosity was 0.332 ± 0.007 mPa·s, 0.312 ± 0.004 mPa·s, 0.326 ± 0.039 mPa·s, 0.353 ± 0.0075 mPa·s, 0.332 ± 0.003 mPa·s, 0.331 ± 0.011 mPa·s, 0.329 ± 0.005 mPa·s, 0.326 ± 0.033 mPa·s, 0.3307 ± 0.0071 mPa·s [several studies].

And the viscosity (313.15 K, 101 kPa)?
Its viscosity is 0.279 ± 0.057 mPa·s [study A] and 0.297 ± 0.03 mPa·s [study B] and 0.31 ± 0.007 mPa·s [study C] and 0.303 ± 0.008 mPa·s [study D] and 0.2965 ± 0.0074 mPa·s [study E] and 0.337 ± 0.009 mPa·s [study F].

What about the viscosity (318.15 K, 100 kPa) of the same molecule?
Its viscosity is 0.2956 ± 0.03 mPa·s [study A] and 0.277 ± 0.056 mPa·s [study B] and 0.2912 ± 0.01 mPa·s [study C] and 0.286 ± 0.017 mPa·s [study D].

And the viscosity (323.15 K, 101 kPa)?
Its viscosity is 0.276 ± 0.005 mPa·s [study A] and 0.291 ± 0.007 mPa·s [study B] and 0.287 ± 0.008 mPa·s [study C] and 0.276 ± 0.01 mPa·s [study D] and 0.279 ± 0.003 mPa·s [study E].

From the CheMixHub viscosity set
